Laboratory results published in the supplement of paper PMC3334620.
Whole data set: some 33,000 sequences, median “E-score (-0.5 to 0.5)” near -0.054, cut for the highest 2% near 0.35. This is one part of the list.

Target: T1, Stb5 (UniProt P38699)
T1 sequence: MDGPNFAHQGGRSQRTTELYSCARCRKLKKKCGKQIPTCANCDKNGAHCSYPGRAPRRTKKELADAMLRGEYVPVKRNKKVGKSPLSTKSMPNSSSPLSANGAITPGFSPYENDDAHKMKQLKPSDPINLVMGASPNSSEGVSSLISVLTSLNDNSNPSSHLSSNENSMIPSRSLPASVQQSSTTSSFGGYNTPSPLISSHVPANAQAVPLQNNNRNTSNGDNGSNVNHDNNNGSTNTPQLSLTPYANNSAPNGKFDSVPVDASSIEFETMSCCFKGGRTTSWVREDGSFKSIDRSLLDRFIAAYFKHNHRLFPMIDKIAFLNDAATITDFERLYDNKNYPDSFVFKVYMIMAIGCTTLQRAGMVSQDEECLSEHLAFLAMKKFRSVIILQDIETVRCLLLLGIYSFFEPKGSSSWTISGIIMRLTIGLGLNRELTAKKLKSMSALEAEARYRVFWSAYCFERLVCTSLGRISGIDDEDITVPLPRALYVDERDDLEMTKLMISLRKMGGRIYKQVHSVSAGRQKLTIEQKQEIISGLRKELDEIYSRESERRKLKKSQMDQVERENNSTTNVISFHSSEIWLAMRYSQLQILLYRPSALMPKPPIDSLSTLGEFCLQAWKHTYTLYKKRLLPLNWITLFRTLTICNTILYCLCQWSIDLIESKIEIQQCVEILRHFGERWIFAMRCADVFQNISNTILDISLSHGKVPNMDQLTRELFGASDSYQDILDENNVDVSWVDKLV
Experiment: PBM E-score (8-mer binding enrichment) (E-score (-0.5 to 0.5)); higher = stronger / more preferred TF binding; most listed sequences are background and not binding sites
Conditions: protein concentration: 200 nM; construct: GST-full length
Outline: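 Yeast transcription factors, full-length or as DNA-binding domains, were expressed with a GST tag using PURExpress in vitro transcription/translation. At about 100-200 nM they were applied to universal all-10-mer Agilent arrays, double-stranded by primer extension on fresh or once-stripped slides. Fluorescent anti-GST detected bound protein, and masliner normalised the scans. E-scores for ungapped eight-base words, pooled with reverse complements, came from the Universal PBM Analysis Suite.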

Sequence	PBM E-score
CCTCCCCA	-0.114
AACTCAGC	-0.032
CGTAGGGA	-0.00471
CAATGAAA	-0.197
ACCATTCC	-0.0654
ACGGACAG	0.00554
AAAGAACG	0.0118
CTTTGTAA	-0.067
GAGCCGGA	0.22
AGCAAGGG	-0.137
AACGTACC	-0.0776
ACGCGAGT	-0.034
AGATATAG	-0.13
AGGTCTAG	-0.166
CATAGCAG	-0.212
GGTCGACA	-0.00149
ACGAGCTC	-0.102
GATACCAC	0.071
TGTCTGAA	-0.107
GGGATACC	0.131
ATAGTGTA	-0.103
CACAAGAA	-0.127

Sequence	PBM E-score
AGGATGGG	-0.325
AAGCTTCT	-0.214
AGTTTTCA	-0.0807
AAGCAAAC	-0.16
AGATCAAC	-0.251
AGGTACCA	-0.143
CATACTAG	-0.0372
ATGTTGCG	0.0804
ATCTAAGC	-0.0851
CCTGTATC	-0.132
ATCCAACA	-0.115
GCCGAGTA	0.0862
CCGAAGCG	0.225
AAGGGAAA	-0.19
ACGAGGCC	-0.0957
ACTTCCAC	0.0682
GCTTTCAC	-0.0591
ATGGTGTG	-0.246
AACGGGGG	0.296
TGTCCTAA	-0.155
GAAGCTAC	-0.193
AAATACCA	-0.109

Sequence	PBM E-score
AAAGCAAT	-0.074
AACACAAC	-0.139
AAGGGACA	-0.192
TACGTATA	-0.0689
GGCTTACA	-0.00474
GGATGGCA	-0.0798
AGAGTATC	-0.0711
GGGGCGAA	0.0874
ACTGTGCG	-0.0441
ATTGTGTG	-0.205
ACCTCCGA	0.364
GCCCTCCA	-0.0409
CCATTACG	-0.174
ATCTACCC	0.0858
CACCCCCG	0.126
AGGTTTTG	-0.112
CCCACACG	0.0468
ACCGGTGA	0.319
ACAACTCT	-0.283
ACAACTGA	-0.152
ACGTGTCC	0.0914
AGTTATCC	-0.00738

Sequence	PBM E-score
TGCGGGAA	0.25
CTAGCTGA	-0.206
AGTAAGAA	-0.0858
AAGAGAAA	0.0634
GAAATTGA	0.0769
GCTCAACC	-0.154
CACCCCCA	-0.362
AAAGCACG	-0.255
CGAAAGGA	0.00285
GCATTCTA	-0.0166
AAAGCGAG	-0.108
AAGACCTG	-0.165
GCGTGGGA	0.00204
CCAAACAC	-0.0822
AACCGCTG	0.0244
AATACCAG	-0.007
GGGCCGGA	0.158
GGTGCAAA	0.0625
ACCAGACG	-0.148
ATACCAGA	-0.177
